Measurements reported in the supplement of paper PMC3334620.
The full ranking holds about 33,000 sequences; the median of “E-score (-0.5 to 0.5)” is about -0.021, and the highest 2% start at about 0.32. The list shows a part of the results.

Biological target: T1, Zap1 (UniProt P47043)
T1 sequence: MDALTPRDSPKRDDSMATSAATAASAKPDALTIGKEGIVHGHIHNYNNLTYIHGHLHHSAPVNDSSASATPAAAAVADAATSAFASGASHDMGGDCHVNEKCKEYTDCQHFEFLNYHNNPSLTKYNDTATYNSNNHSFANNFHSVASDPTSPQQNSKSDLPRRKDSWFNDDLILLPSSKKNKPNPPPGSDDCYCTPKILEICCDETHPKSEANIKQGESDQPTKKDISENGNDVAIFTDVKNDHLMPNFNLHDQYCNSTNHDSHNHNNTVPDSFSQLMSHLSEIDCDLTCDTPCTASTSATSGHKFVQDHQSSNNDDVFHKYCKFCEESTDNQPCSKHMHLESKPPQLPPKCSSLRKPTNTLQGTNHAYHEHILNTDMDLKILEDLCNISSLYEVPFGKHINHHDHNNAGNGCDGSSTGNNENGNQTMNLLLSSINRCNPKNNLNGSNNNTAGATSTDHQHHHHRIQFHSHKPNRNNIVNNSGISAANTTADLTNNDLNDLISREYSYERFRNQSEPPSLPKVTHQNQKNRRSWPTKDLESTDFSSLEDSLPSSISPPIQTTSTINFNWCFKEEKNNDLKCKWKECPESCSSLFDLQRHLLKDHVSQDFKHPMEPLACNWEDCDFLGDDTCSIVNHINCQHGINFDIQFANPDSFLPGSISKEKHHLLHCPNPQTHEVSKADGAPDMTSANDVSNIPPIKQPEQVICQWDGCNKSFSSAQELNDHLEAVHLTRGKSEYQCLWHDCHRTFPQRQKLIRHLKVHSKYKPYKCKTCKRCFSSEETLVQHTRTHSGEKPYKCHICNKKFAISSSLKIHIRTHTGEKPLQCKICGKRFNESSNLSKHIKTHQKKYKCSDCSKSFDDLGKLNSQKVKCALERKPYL
Assay: PBM E-score (8-mer binding enrichment) (E-score (-0.5 to 0.5)); higher = stronger / more preferred TF binding; most listed sequences are background and not binding sites
Settings: protein concentration: 200 nM; construct: GST-full length
How it was run: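 Each ungapped eight-base word and its reverse complement, pooled, received an E-score from the Universal PBM Analysis Suite. Underlying scans, normalised with masliner, recorded fluorescent anti-GST bound to GST-tagged yeast transcription factors. These were applied at about 100-200 nM to universal all-10-mer Agilent arrays double-stranded by primer extension.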

First: CCAGGCGG
Second: AAGAATGT
The “PBM E-score” value of the first is lower: -0.0447 for the first, -0.0207 for the second.

First: CGACCCGA
Second: AGGTCGAA
The “PBM E-score” value of the first is lower: 0.0168 for the first, 0.11 for the second.

Compared with CGTCTAAC, CTAATCAA is higher in “PBM E-score” value: 0.059 for the first, 0.152 for the second.

First: AGGACGCC
Second: CACTTTAC
The “PBM E-score” value of the first is lower: -0.153 for the first, 0.0657 for the second.

Compared with ATTAAGGC, CAGCGAAA is lower in “PBM E-score” value: 0.108 for the first, -0.0658 for the second.

Compared with ATGGGGTG, GGTTACGA is higher in “PBM E-score” value: 0.143 for the first, 0.465 for the second.

Going from GTGGCCTA to CCCTTTCA, the “PBM E-score” value rises from 0.0774 to 0.157.

Compared with GCTAATAC, ACATTATA is higher in “PBM E-score” value: -0.0374 for the first, 0.0124 for the second.

Compared with CTCTTCCA, CACGGGGA is lower in “PBM E-score” value: -0.145 for the first, -0.219 for the second.

Compared with ATTACAAG, TTGATAAA is higher in “PBM E-score” value: 0.0699 for the first, 0.26 for the second.

First: ATAACGGG
Second: GACAAGTC
The “PBM E-score” value of the first is higher: -0.0354 for the first, -0.338 for the second.

First: ATGAATCA
Second: CCGTATCA
The “PBM E-score” value of the first is higher: -0.00312 for the first, -0.107 for the second.

First: ATACCGGC
Second: CTGTTTAA
The “PBM E-score” value of the first is lower: 4e-05 for the first, 0.159 for the second.

First: AATCGCAA
Second: CACATCTG
The “PBM E-score” value of the first is higher: 0.15 for the first, -0.164 for the second.

Compared with CCTTCGTA, CTTTCGGC is lower in “PBM E-score” value: 0.0211 for the first, -0.115 for the second.

Compared with TAAGCTAA, AGTACGGG is lower in “PBM E-score” value: 0.151 for the first, -0.291 for the second.

Compared with GTCGCCAC, AAGTAAAC is higher in “PBM E-score” value: -0.179 for the first, 0.00616 for the second.

Compared with AAACAAAG, ATGGATAC is lower in “PBM E-score” value: 0.146 for the first, 0.0885 for the second.

First: TCTGGTAA
Second: GTACCGAC
The “PBM E-score” value of the first is higher: 0.28 for the first, -0.0413 for the second.

Going from AGAACTCT to CGATAGTC, the “PBM E-score” value falls from -0.0113 to -0.0762.

Compared with TCATTTAA, CGTGGCAA is lower in “PBM E-score” value: 0.0585 for the first, -0.175 for the second.

Compared with CCACACCA, AGGCACCG is lower in “PBM E-score” value: 0.15 for the first, -0.0707 for the second.

First: GAGAGGCA
Second: ATCGGCTA
The “PBM E-score” value of the first is lower: -0.218 for the first, -0.00607 for the second.

Compared with TATAACGA, CCCACCTA is lower in “PBM E-score” value: 0.043 for the first, 0.0262 for the second.

Compared with ACTAAACC, ACGAGTGC is lower in “PBM E-score” value: 0.0816 for the first, -0.28 for the second.

Going from CCGTTGAA to CAGAATCC, the “PBM E-score” value falls from 0.0375 to -0.0142.

Compared with CGCCACCA, ATGGTTAC is higher in “PBM E-score” value: -0.204 for the first, 0.471 for the second.

Compared with GCGTAACC, CATATAGC is lower in “PBM E-score” value: 0.446 for the first, -0.0322 for the second.

Going from AAGGGCAG to ACAGTAAA, the “PBM E-score” value rises from -0.293 to 0.00478.

Going from GGATTGGA to CGACTTAC, the “PBM E-score” value falls from -0.19 to -0.22.

Going from GGCAATTA to GAGTGACC, the “PBM E-score” value rises from -0.0276 to 0.239.

Compared with AGTGCTCC, CGAACCAC is higher in “PBM E-score” value: -0.176 for the first, 0.106 for the second.

Going from AACCGATT to ATGTATCA, the “PBM E-score” value rises from 0.15 to 0.19.

Going from GCTGGACC to GTAAATCA, the “PBM E-score” value rises from -0.121 to 0.207.

First: AAAATGTT
Second: GAGTAATC
The “PBM E-score” value of the first is higher: 0.065 for the first, 0.00348 for the second.

First: AGAATCAG
Second: GATAGCAC
The “PBM E-score” value of the first is higher: 0.0672 for the first, -0.117 for the second.

Going from CAGGCATA to TCCCACCA, the “PBM E-score” value rises from -0.314 to -0.131.

Compared with CGGAACAG, GAAGCCGC is higher in “PBM E-score” value: -0.194 for the first, 0.00935 for the second.

Compared with GACTGCTC, AAGTACGA is higher in “PBM E-score” value: -0.107 for the first, -0.00918 for the second.

Going from GGGACGGA to CACACTAA, the “PBM E-score” value rises from -0.275 to 0.143.

First: GACCGTGC
Second: CAGGAGCG
The “PBM E-score” value of the first is lower: -0.107 for the first, -0.101 for the second.

Compared with CCGTCTCC, AAGGGTGA is higher in “PBM E-score” value: -0.136 for the first, 0.293 for the second.

First: AGGCTGAA
Second: GTGAGCGA
The “PBM E-score” value of the first is lower: 0.0934 for the first, 0.1 for the second.

Compared with AGAGACCC, ACTCGTAT is higher in “PBM E-score” value: 0.078 for the first, 0.0878 for the second.

First: CTGGGCTC
Second: ACTTAACT
The “PBM E-score” value of the first is lower: -0.152 for the first, 0.0364 for the second.

First: CTCGGGCC
Second: CAATGGAC
The “PBM E-score” value of the first is lower: -0.0822 for the first, 0.0534 for the second.

First: CCCAGACC
Second: CGAGTCCA
The “PBM E-score” value of the first is higher: 0.0212 for the first, -0.204 for the second.

Going from GAGCGAAA to ACCACAAC, the “PBM E-score” value rises from 0.121 to 0.307.

Compared with ATTTAGCG, ACTGCATA is lower in “PBM E-score” value: 0.0642 for the first, -0.0425 for the second.

Going from CCGCCCAG to GACTGCTA, the “PBM E-score” value falls from 0.06 to -0.167.

Compared with GGGGCAAA, GCCGAAGA is higher in “PBM E-score” value: -0.173 for the first, -0.165 for the second.

Compared with ACTGCAAC, GCCTAGCA is lower in “PBM E-score” value: 0.0354 for the first, -0.217 for the second.

Going from CATCTAAA to AAATGCCT, the “PBM E-score” value falls from 0.109 to -0.173.

First: GACATGTA
Second: AATATCCT
The “PBM E-score” value of the first is higher: 0.0707 for the first, 0.00302 for the second.

First: CCGGTCAG
Second: GTCCATAA
The “PBM E-score” value of the first is lower: 0.0589 for the first, 0.15 for the second.

Going from ATCCGGTC to ACTAGGTG, the “PBM E-score” value falls from -0.12 to -0.171.

First: GTCCGCTA
Second: GAAGTGAA
The “PBM E-score” value of the first is higher: 0.127 for the first, -0.0795 for the second.

Going from AGCGCCCA to ATTAGGTA, the “PBM E-score” value rises from -0.263 to 0.163.

Compared with GCGCCGCA, GCGCATAA is lower in “PBM E-score” value: -0.0334 for the first, -0.166 for the second.

Compared with ATCTCCCA, ATCTTACC is higher in “PBM E-score” value: -0.154 for the first, 0.0755 for the second.

Compared with GCATAGGA, GCTAAAAA is higher in “PBM E-score” value: -0.135 for the first, 0.00967 for the second.

First: AGAATCTG
Second: CACGCATA
The “PBM E-score” value of the first is higher: -0.0278 for the first, -0.125 for the second.

First: ACGTCTTA
Second: CAGAGTAC
The “PBM E-score” value of the first is lower: -0.0606 for the first, 0.0483 for the second.

Going from CGCTGCCG to TAACTAAA, the “PBM E-score” value rises from -0.184 to 0.256.

Compared with GACGGGCC, CCGCGGCC is higher in “PBM E-score” value: -0.213 for the first, 0.305 for the second.

Going from CAACGCTG to TGCCTAAA, the “PBM E-score” value rises from -0.19 to -0.0644.

Compared with AGCGTTTA, GCTTGGCC is higher in “PBM E-score” value: -0.229 for the first, -0.188 for the second.

Going from CTAGAATC to CATGTCAG, the “PBM E-score” value rises from -0.137 to -0.0265.

Going from CTTTAAAG to CTGTCACC, the “PBM E-score” value falls from 0.253 to 0.0565.

Compared with GATCAAAC, AGTGAGCC is lower in “PBM E-score” value: 0.04 for the first, -0.122 for the second.

Compared with AGTTGACG, GAAGCCTA is lower in “PBM E-score” value: -0.0633 for the first, -0.219 for the second.

Compared with TCAGCCCA, CATCACTC is higher in “PBM E-score” value: -0.0436 for the first, -0.0206 for the second.

Going from CGTTTCAC to ACACGAAC, the “PBM E-score” value rises from -0.115 to 0.013.

Going from CACTAACA to ATCGTCAT, the “PBM E-score” value rises from -0.0811 to 0.0769.

Compared with CCTGCCTC, ACGACTGG is lower in “PBM E-score” value: -0.259 for the first, -0.276 for the second.

Going from CCCGTACG to CCTTCAAC, the “PBM E-score” value rises from -0.137 to -0.012.

Going from CGGGGCAA to AATTTCCT, the “PBM E-score” value rises from -0.0604 to 0.0432.

First: AGACTATA
Second: CAGGATCC
The “PBM E-score” value of the first is higher: 0.126 for the first, 0.0437 for the second.

Compared with CGCTTGCC, CACGGACG is higher in “PBM E-score” value: -0.163 for the first, -0.0254 for the second.

Compared with TTAGAGAA, AGTAAACC is higher in “PBM E-score” value: -0.0471 for the first, 0.177 for the second.

Going from CGACGTCA to CAATTAAA, the “PBM E-score” value rises from -0.221 to 0.209.

Compared with GGGAGGAC, ACCGAAGT is higher in “PBM E-score” value: -0.139 for the first, 0.0625 for the second.

Going from CGGACACA to CCCTCAGA, the “PBM E-score” value falls from 0.0391 to -0.0546.

First: ATGCCTCC
Second: GAACCCCC
The “PBM E-score” value of the first is higher: -0.203 for the first, -0.258 for the second.

Compared with AATAGTCC, AAAGCTTA is higher in “PBM E-score” value: -0.0873 for the first, 0.0835 for the second.

Compared with GAGCATAC, ACAACCAA is higher in “PBM E-score” value: -0.127 for the first, 0.267 for the second.
